# In article PMC4336329 (PLoS ONE, 2015):
# Among all 310,000 compounds or so, about 2,200 (0.71%) showed an effect of 50% or more. The effect is printed as a negative number. The list shows a part of the results.
# Target: human ether-à-go-go-related gene (hERG) potassium channel (human, UniProt Q12809)
# Assay: primary screen, population patch clamp on CHO cells stably expressing hERG
# human ether-à-go-go-related gene (hERG) potassium channel, sequence (Q12809 whole entry, looked up): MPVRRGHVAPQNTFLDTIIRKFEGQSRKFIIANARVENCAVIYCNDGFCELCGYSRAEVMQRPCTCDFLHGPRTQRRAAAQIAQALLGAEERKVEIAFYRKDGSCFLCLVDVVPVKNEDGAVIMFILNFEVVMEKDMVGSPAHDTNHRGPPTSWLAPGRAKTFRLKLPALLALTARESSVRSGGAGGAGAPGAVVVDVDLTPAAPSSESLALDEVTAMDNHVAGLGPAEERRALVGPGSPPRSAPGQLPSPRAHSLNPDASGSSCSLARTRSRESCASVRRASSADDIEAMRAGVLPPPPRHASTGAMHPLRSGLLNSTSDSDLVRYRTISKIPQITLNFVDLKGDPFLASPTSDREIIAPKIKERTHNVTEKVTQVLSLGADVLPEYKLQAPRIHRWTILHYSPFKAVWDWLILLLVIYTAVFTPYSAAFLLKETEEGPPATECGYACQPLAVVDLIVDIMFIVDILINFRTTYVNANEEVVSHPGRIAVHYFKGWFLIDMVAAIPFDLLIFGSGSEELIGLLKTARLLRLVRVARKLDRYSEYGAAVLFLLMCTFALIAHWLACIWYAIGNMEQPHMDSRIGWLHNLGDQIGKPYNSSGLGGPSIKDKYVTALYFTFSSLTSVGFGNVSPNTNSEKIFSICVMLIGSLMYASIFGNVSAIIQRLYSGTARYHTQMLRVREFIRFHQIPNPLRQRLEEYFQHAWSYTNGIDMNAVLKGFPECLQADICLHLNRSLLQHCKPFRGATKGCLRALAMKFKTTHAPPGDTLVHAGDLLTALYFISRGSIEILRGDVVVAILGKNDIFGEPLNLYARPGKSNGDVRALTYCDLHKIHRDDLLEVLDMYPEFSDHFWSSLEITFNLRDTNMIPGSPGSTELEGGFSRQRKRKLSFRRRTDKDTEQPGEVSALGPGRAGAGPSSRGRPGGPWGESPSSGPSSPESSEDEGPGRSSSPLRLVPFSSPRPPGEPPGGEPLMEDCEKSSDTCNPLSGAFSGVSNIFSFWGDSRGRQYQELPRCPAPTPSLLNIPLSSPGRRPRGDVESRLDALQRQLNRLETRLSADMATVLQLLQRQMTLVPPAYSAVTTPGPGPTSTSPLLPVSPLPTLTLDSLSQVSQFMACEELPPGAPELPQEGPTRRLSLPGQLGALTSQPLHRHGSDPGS
row,Structure (SMILES),"hERG current change (%, negative = inhibition) at 1uM [%]"
1,Cc1nc(N2CCCCC2)c2ccsc2n1.O=C(O)C(=O)O,1.34
2,CC(NC(=O)CCN1N=C(c2ccccc2)CCC1=O)c1ccc2c(c1)OCCO2 (stereo not drawn),12.4
3,CCN1C[C@@]2(COC)C3[C@@H](OC)[C@H]4[C@@H]1[C@@]3(C1C[C@H]3[C@H](OC(=O)c5ccccc5)C1[C@]4(OC(C)=O)C[C@H]3OC)[C@@H](OC)C[C@H]2O (stereo partly drawn),3.36
4,COc1ccc(N(CC(=O)NCc2ccco2)S(=O)(=O)c2ccc(OC)c(OC)c2)cc1,2.83
5,Cc1cc(C)nc(N2CCC(C(=O)Nc3cccc(C(F)(F)F)c3)CC2)n1,-9.81
6,Cl.ClC(CCN1CCN(Cc2ccccc2)CC1)c1ccccc1 (stereo not drawn),2.91
7,Cc1ccc(NC(=O)CN(C)C(=O)COC(=O)/C=C/c2cccs2)cc1,12.2
8,Cc1cc(F)ccc1S(=O)(=O)NCC(c1ccc2c(c1)OCO2)N1CCOCC1 (stereo not drawn),3.18
9,CCCCC(=O)N1CCN(c2nc3ccc(Cl)cc3s2)CC1,-19.3
10,CSCCC(NC(=O)COc1ccccc1)C(=O)NCCOc1ccccc1 (stereo not drawn),13.8
11,C=CCOc1cccc(C2C(C(=O)c3ccco3)=C(O)C(=O)N2CCN2CCOCC2)c1 (stereo not drawn),11.9
12,Cc1ccc(O)c(NC(=S)NC(=O)/C=C/c2ccccc2)c1,17
13,COc1cc(/C=N/NC(=S)NCC2CCCO2)cc(OC)c1OC (stereo not drawn),0.431
14,CCN(C(=O)CN1CCN(C)CC1)c1cccc2ccccc12.O=C(O)C(=O)O,7.18
15,CC1(C)Cc2noc(N)c2C(C)(C)N1OC(=O)c1ccccc1,5.24
16,Oc1ccc(/C=N/Nc2nc(-c3ccc(Cl)cc3)cc(C(F)(F)F)n2)cc1,2.87
17,Cc1ccc(OCC(=O)Nc2cccc(S(=O)(=O)N3CCCCCC3)c2)c([N+](=O)[O-])n1,-5.98
18,O/N=C1/CCSc2ccccc21,8.39
19,CC1(C)CC(=O)c2sc(NC(=O)CN3C(=O)CCC3=O)nc2C1,9.18
20,COc1cccc(NC(=O)Nc2ccc3c(c2)OCO3)c1,16.8
21,Cc1ccccc1CC1(CO)CCCN(C(=O)CCCN2CCCCC2=O)C1 (stereo not drawn),7.31
22,Clc1ccc2c(c1)[C@H]1OCC[C@H]1[C@@H](c1ccco1)N2,3.66

row,Structure (SMILES),"hERG current change (%, negative = inhibition) at 1uM [%]"
1,COc1ccc(S(=O)(=O)N2CCC(n3cnc4cc(C(F)(F)F)ccc43)CC2)cc1,-48.1
2,COC(=O)CCCn1c(C)cc(C(=O)CCl)c1C,5.38
3,Cc1nccn1CC(=O)N/N=C/c1c[nH]c2ccccc12,9.58
4,CC(=O)c1ccc(N2CCN(CC(O)COCc3ccco3)CC2)cc1 (stereo not drawn),-29.3
5,O=C(CC1Oc2ccccc2NC1=O)NCCCN1CCN(Cc2ccccc2)CC1 (stereo not drawn),0.886
6,Cc1cc(Nc2ccc(O)cc2)n2c(nc3ccccc32)c1C#N,9.2
7,CCNC(=O)COc1ccc2ccccc2c1,12.9
8,CCOC(=O)Cc1c(C)nc(N)[nH]c1=O,12.1
9,CCC(NC(=O)c1ccccc1Br)c1ccccc1 (stereo not drawn),9.2
10,O=C(NCCN1CCOCC1)c1ccc(Cl)cc1,15
11,CC1=C(C)CC2(SC1)C(=O)N(c1ccccc1)N=C2N (stereo not drawn),-5.83
12,CN(CCC1CCCCO1)C(=O)CCc1nnc(Cc2c[nH]c3ccccc23)o1 (stereo not drawn),5.84
13,OCCC1CN(Cc2ccc(F)cc2)CCN1CCc1ccccc1 (stereo not drawn),-48
14,CC(C)(C)NC(=O)C1CCCN(S(=O)(=O)c2cccc3cccnc23)C1 (stereo not drawn),9.22
15,Cc1oc(C(N)=O)cc1COc1ccc(C(N)=O)cc1,11.9
16,C=CC(COCc1ccccc1)N(Cc1ccccc1)S(=O)(=O)c1ccccc1Br (stereo not drawn),10.1
17,CN1CCC(=NNC(=O)C(=O)Nc2ccccc2)CC1,5.74
18,COc1ccccc1N(CC(O)CN1CCCC1)S(=O)(=O)c1ccccc1 (stereo not drawn),1.5
19,COc1cc(C(=O)NCc2cccc(Cl)c2)ccc1OCC(=O)N1CCOCC1,-0.185
20,COCCSc1nc(N)c(NC(=O)c2ccc(OC)cc2)c(=O)[nH]1,17.3
21,CCOC(=O)CC1C(=O)NCCN1c1nc2ccc(C)cn2c(=O)c1/C=C1\SC(=S)N(C(C)CC)C1=O (stereo not drawn),11.1
22,O=S(=O)(NC1CCN(Cc2ccccc2)CC1)c1ccc(Cl)cc1,9.8

row,Structure (SMILES),"hERG current change (%, negative = inhibition) at 1uM [%]"
1,CCN(CC)P(=O)(Nc1cccc(C(F)(F)F)c1)c1ccc(N(C)C)cc1NC(=O)c1ccco1 (stereo not drawn),12.1
2,COc1cc(/C=C/C(=O)OCC(=O)NCc2ccco2)cc(OC)c1OC,7.23
3,CCCC1(c2ccccc2)NC(=O)N(CC(=O)c2[nH]c(C)c(C(=O)OCC)c2C)C1=O (stereo not drawn),7.22
4,CCC(C(=O)NCc1ccco1)n1nc(C)c2c(C)n(-c3ccccc3)nc2c1=O (stereo not drawn),7.02
5,COc1cccc(/C=C/C(=O)Nc2ccc(N3CCOCC3)cc2)c1OC,0.898
6,Cn1c(S(=O)(=O)c2ccc([N+](=O)[O-])cc2)nc(Br)c1Br,16.1
7,COc1cc(-c2nnc(CSc3nnc(Nc4ccc(C(C)C)cc4)s3)o2)cc(OC)c1OC,8.97
8,Cc1ccc(NC(=O)CN2CCOCC2)cc1Cl,10.3
9,CN(Cc1cn(C)nc1-c1ccc(Oc2ccccc2)cc1)CC1COCCO1 (stereo not drawn),-3.26
10,CC(=O)c1cccc(CN2CCCC(C(=O)Nc3cccc(-n4cccn4)c3)C2)c1 (stereo not drawn),9.28
11,CCOC(=O)Nc1nnc(-c2ccc(OC)c(OC)c2)s1,11.4
12,C=CCn1c(SCC(=O)NCc2ccccc2)nnc1-c1ccccc1O,-0.209
13,CCOc1ccc(CCNC(=O)COC(=O)c2ccc3c(c2)OCCO3)cc1OCC,11
14,CC(C)Cc1nnc(NC(=O)CCC(=O)N2CCOCC2)s1,0.0241
15,Clc1cccc(CSc2nnc(-c3ccccn3)n2Cc2ccco2)c1,9.48
16,CCN(CC(=O)Nc1ccc2c(c1)OCCO2)C(=O)c1ccc([N+](=O)[O-])s1,4.78
17,CC(C)Oc1cccc(C(=O)C2CCCN(C(=O)c3cc(C(F)(F)F)[nH]n3)C2)c1 (stereo not drawn),11.2
18,COC(=O)c1ccccc1S(=O)(=O)N1CCC(C(=O)NC2CCCCC2C)CC1 (stereo not drawn),10
19,O=C1NC(Cc2ccccc2)C(=O)N1Cc1cc([N+](=O)[O-])cc2c1OCOC2 (stereo not drawn),10
20,CC(=O)Nc1nonc1-c1nc2ccccc2n1Cc1ccccn1,5.58
21,C#CCOCCOCCOCCNc1nc(N2CCN(C(=O)CCCCCCCCCCNC(=O)Cn3cc(C[C@@H](C)O)nn3)CC2)nc(N2CCN(C(=O)CCCCCCCCCCNC(=O)[C@@H](CCC(=O)O)n3cc(CCCCCN)nn3)CC2)n1,13.4
22,CN(Cc1nc(-c2ccccn2)no1)S(=O)(=O)c1ccc(Br)cc1,3.72

row,Structure (SMILES),"hERG current change (%, negative = inhibition) at 1uM [%]"
1,COc1cccc(N(CC(=O)N2CCc3ccccc3C2)S(C)(=O)=O)c1,0.216
2,Cc1ccc(NC(=O)CN2C(=O)CNC2=O)cc1,15.8
3,CCOc1ccc2[nH]c(=O)c(CN(Cc3nnnn3CCc3ccccc3)CC3CCCO3)cc2c1 (stereo not drawn),-3.6
4,CC(C)(CN1CCOCC1)NS(=O)(=O)c1ccccc1,6.67
5,Cc1cccn2c(=O)nc(SCC(=O)NCc3ccccc3Cl)nc12,4.08
6,COc1ccc(-c2cc(CN3C(=O)c4ccccc4C3=O)on2)cc1,6.01
7,Cc1ccc(Cn2c(=N)c(C(=O)NCC3CCCO3)cc3c(=O)n4cccc(C)c4nc32)cc1 (stereo not drawn),-85.9
8,CCOC(=O)C1=C(COC(=O)COc2ccc(Br)cc2)NC(=O)NC1C (stereo not drawn),18.2
9,COc1ccc2c(C(=O)CCl)c[nH]c2c1,12.5
10,FC(F)(F)c1ccc(-c2noc(CN3CCCN(C4CCCCC4)CC3)n2)cc1,-75.3
11,Cc1ccc(N2C(=O)/C(=C\c3ccc(C(C)C)cc3)N=C2SC2CCOC2=O)cc1 (stereo not drawn),15.8
12,CCn1nc(NC(=O)c2ccccc2)c2cc3cccc(C)c3nc21,11
13,CNC(=O)c1cccn1-c1ccsc1C(=O)OC,13.1
14,COc1cccc(N2CCN(C(=O)c3cc(C)oc3C)CC2)c1,6.38
15,CCCc1nn2c(=O)cc(O)nc2s1,14.8
16,C[C@H](NC(=O)c1cc2cc(Cl)ccc2n1C)C(=O)N[C@@H](Cc1ccccc1)C(=O)O,12.6
17,CCOC(=O)c1c(NC(=O)C2CCCO2)sc(C)c1C (stereo not drawn),12.3
18,O=[N+]([O-])c1ccc(Nc2nc(Cl)nc(NCCO)n2)cc1,2.88
19,C=CCOC(=O)C1=C(C)OC(N)=C(C#N)[C@@]12C(=O)N(CC(N)=O)c1ccccc12,-0.87
20,O=C(COc1ccccc1)OCc1cc(-c2ccco2)on1,10.6
21,O=C(Cc1ccccc1)N1CCN(c2ccccc2F)CC1,20.3
